Assay results as given in the RNAGym collection of RNA variant scans (doi:10.7554/elife.90254).
The source gives no read counts; variants with many changes may rest on few reads.

B1: LINE1-full (parent)
chain: UACGUAGGUGGUUUUCCCCUGAUAGUGCUAAGGGGGCCUGGAAGUUUGGACUGGGCAGAGCUCAACACAGCGUGGCAAAGUGGCUGUGGCUAGACUGCCUCUCUGGAUUCCUCGUCACUCAGCAGGGCAUCUCUGAGAGAAAUGCC

Variants of: B1
Test: self-cleavage, relative activity (ratio to wild type); higher = more cleavage; in vitro, sequencing; the parent is a self-cleaving ribozyme

| Variant | self-cleavage |
| --- | --- |
| U26C G33U G40A | 1.37 |
| A24G G97A C131A | 0.13 |
| A24G U46C A59G U85A A129U | 0 |
| G25A U112C C131U | 1.79 |
| U26C U39C A77U U119C | 0.97 |
| U26G A31U C51U | 0.79 |
| U26C U73C U112C G125A | 1.58 |
| A24U G70A U102C A140G | 0.2 |
| U26C A57G A141G | 0.96 |
| G27C U109C C110U | 1.43 |
| U26A U85A U130C | 0.07 |
| A24G U62A G74A | 0.06 |
| U26C U112A A142G | 1.6 |
| G27A A78G A92G | 0.09 |
| A24U A42G G82U U91C A136G | 1.59 |
| U26C A50G U62C U87A A117U A124G | 0 |
| U26C C56U A142G | 0.18 |
| A24G U104A A121G A124G | 0.69 |
| U26A G72U A136G A142U | 1.59 |
| U26C A59G C101U | 0.1 |
| A24U G36A A78G A136U | 1.34 |

| Variant | self-cleavage |
| --- | --- |
| U26C A57U A136G | 0.18 |
| U26C U47A G72A A124G U143C | 0.51 |
| A24U A67U A79U U104C U119C U134C | 0.9 |
| A24U A65G G114A A138G | 0.09 |
| U26C U39C G53A | 1.35 |
| U26A A78U U108A U112C | 1.63 |
| A24U A43G A124G | 1.41 |
| U26C U62A U115A A124G | 0.15 |
| A24U A94G C99A U102A | 0.09 |
| A24U A64U A94G | 0.07 |
| A24U A64C A92G A138G | 0 |
| U26C A30G A69U U73C | 0 |
| A24G U46C U52C A78G A129U A140U | 1.7 |
| U26C G54A U115C | 0.61 |
| U26C U46G G105A U108C A124G C131U | 0.96 |
| U26C U47A A57G G75C | 0.27 |
| G27A U47G U62C U104A | 0.04 |
| U26A A30G A57C G70A A107G U109A A142G | 0.3 |
| G27A A67G C84U U87A U109C A141G | 0.03 |
| U26A A69U U115G | 0.14 |
| G27A C68A U85C | 0.05 |

| Variant | self-cleavage |
| --- | --- |
| G27U A65G C95U | 0.06 |
| A24G G49A A138G | 1.47 |
| U26C U39A A79G U91C U102A G125A A142G | 0.51 |
| U26C A57G C71A A78G U115A U143C G144A | 0.17 |
| G25A U46A U96C U100C | 0.21 |
| U26C U39A C63U A78G A79U | 0.23 |
| U26C U87A C99U | 0.06 |
| A24G U29C U39A U46C U47A A64G U100A | 1.53 |
| U26C A65G A107G U132C | 0 |
| U26C C99U U102C | 0.83 |
| U26C U52C U62A A92G | 0 |
| U26A C28U A64U | 0.42 |
| U26A U47G U119C U132C A136G | 0.77 |
| U26A U47C A121U | 1.5 |
| U26A A59U G74A | 0.37 |
| U26A U45C U52A | 1.16 |
| A24G U81G U115C U143A | 2.12 |
| A24U U39A U87C U96C A140G | 0 |
| A24G U104C A117C | 1.38 |
| G27C C113U A138U A142G | 1.51 |
| A24U U73A A124G A136G | 1.76 |

| Variant | self-cleavage |
| --- | --- |
| A24G U62C A107G | 0 |
| U26C G83U U115A U130C | 0.22 |
| U26C C76U U87C C99U A141G | 0.12 |
| U26A A57G A79G U85C | 0 |
| U26A A31G U115C C145A | 1.05 |
| U26A U87A U130C A141G | 0.11 |
| A24U A31U A78G U85C | 0.14 |
| A24U A57U A92G U96A | 0.08 |
| U26C U29C U108C | 1.08 |
| A24U A64G U85A U115A | 0 |
| G25A C63U A92G A140C | 0 |
| A24U A57G A77U G83U U96A | 0.02 |
| U26A A140G A141G | 0.18 |
| U26A A136G A140G | 0.36 |
| U26C A59U C66U U100C | 0.14 |
| U26C A77U A117U A129G | 2.19 |
| A24U G41A A69U U96C U102A | 0.06 |
| U26C A92U A129U | 0.93 |
| U26C U100C A138G | 2.93 |
| U26C U29C C99U | 0.1 |
| U26A U29C U102C | 0.98 |
